Source: PMC10865817
These are yes or no findings as the source states them, for the method shown. Binding seen in cells or lysates may run through a third protein. Some results given as binding are weak or reduced against the parent protein; the word gives no strength. For some assays here: Tags and fused reporters may be left off the sequences shown.

Assays:
HA-YTHDF2 (human) = molecular target: T1, HA-YTHDF2 (human) (UniProt Q9Y5A9); test: co-IP; HEK293T cells co-transfected with HA-YTHDF2 and truncated V5-PIAS1 or Halo-V5-PIAS1; YTHDF2 immunoprecipitated with anti-HA antibody-conjugated beads, Western blot
T1 sequence: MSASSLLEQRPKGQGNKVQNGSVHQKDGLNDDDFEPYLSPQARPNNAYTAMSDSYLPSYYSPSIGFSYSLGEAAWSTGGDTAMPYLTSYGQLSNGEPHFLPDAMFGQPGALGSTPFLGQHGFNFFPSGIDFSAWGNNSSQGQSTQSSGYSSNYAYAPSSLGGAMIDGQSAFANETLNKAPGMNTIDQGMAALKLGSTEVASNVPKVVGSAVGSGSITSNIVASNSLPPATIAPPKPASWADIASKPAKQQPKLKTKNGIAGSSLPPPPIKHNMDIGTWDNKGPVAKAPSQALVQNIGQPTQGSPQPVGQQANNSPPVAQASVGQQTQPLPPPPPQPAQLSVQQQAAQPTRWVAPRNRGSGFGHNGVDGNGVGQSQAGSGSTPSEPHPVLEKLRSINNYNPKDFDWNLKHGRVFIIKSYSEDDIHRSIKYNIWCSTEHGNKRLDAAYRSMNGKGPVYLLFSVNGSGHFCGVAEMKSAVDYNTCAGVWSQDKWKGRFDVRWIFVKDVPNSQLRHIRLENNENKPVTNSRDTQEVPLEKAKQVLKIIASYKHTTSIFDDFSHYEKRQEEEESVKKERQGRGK

Halo-V5-YTHDF3 (human) = molecular target: T2, Halo-V5-YTHDF3 (human) (UniProt Q7Z739); test: co-IP; HEK293T cells co-transfected; V5-tagged YTHDF protein immunoprecipitated (anti-V5 magnetic beads in Fig. 1B, antibodies against V5 tag in Fig. 8C; beads of Fig. 2B not stated), PIAS1 detected by Western blot; with or without SUMO2 co-transfection in Fig. 1B
T2 sequence: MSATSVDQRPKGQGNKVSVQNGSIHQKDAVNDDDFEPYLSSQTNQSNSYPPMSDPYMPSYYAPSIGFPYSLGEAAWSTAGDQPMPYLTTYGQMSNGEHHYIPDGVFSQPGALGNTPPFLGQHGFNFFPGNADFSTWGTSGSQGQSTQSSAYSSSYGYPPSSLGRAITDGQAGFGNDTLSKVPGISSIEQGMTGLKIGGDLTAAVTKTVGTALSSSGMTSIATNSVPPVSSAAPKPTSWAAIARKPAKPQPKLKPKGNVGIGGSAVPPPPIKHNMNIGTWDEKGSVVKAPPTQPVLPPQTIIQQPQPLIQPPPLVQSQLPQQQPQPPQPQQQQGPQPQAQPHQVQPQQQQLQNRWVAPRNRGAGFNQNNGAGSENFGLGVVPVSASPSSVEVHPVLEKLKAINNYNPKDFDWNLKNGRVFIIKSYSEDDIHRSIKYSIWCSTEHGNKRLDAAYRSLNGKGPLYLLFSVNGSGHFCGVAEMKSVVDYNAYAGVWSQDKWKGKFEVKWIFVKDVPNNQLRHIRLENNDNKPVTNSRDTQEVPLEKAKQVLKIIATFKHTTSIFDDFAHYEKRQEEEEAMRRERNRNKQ

Halo-V5-YTHDF1 (human) = molecular target: T3, Halo-V5-YTHDF1 (human) (UniProt Q9BYJ9); test: as above
T3 sequence: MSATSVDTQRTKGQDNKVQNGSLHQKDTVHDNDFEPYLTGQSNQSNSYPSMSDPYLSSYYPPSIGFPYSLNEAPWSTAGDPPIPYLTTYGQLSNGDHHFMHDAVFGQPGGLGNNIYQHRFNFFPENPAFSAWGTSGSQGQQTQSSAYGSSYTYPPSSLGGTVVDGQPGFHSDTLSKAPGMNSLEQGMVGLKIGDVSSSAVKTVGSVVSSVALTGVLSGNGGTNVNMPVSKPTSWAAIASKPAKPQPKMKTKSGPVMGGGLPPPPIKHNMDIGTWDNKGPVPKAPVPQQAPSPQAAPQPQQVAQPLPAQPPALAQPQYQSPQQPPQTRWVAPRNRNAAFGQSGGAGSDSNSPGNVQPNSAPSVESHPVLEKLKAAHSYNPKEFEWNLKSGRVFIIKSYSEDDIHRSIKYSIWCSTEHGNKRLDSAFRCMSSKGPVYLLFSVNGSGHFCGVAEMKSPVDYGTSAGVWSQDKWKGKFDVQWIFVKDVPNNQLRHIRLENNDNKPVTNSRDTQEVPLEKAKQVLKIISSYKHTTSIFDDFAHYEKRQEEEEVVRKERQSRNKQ

[1] = molecular target: T4, Halo-V5-YTHDF2 (full length, 1-579) (human) (UniProt Q9Y5A9); test: as above
T4 sequence: T1 sequence

[2] = molecular target: T5, Halo-V5-YTHDF2 (aa 1-166) (human) (UniProt Q9Y5A9); test: as above
T5 sequence: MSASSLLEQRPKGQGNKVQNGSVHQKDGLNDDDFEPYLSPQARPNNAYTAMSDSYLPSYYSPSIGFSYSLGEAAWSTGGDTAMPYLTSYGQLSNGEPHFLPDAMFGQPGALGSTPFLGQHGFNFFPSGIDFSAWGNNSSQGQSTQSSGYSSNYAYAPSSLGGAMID

[3] = molecular target: T6, Halo-V5-YTHDF2 (aa 167-367) (human) (UniProt Q9Y5A9); test: as above
T6 sequence: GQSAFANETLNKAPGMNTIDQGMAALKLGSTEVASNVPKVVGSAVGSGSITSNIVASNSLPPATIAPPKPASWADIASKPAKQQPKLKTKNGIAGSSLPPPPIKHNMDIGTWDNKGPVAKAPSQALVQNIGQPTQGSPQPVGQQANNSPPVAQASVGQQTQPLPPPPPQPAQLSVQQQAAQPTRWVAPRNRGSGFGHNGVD

[4] = molecular target: T7, Halo-V5-YTHDF2 (aa 167-579) (human) (UniProt Q9Y5A9); test: as above
T7 sequence: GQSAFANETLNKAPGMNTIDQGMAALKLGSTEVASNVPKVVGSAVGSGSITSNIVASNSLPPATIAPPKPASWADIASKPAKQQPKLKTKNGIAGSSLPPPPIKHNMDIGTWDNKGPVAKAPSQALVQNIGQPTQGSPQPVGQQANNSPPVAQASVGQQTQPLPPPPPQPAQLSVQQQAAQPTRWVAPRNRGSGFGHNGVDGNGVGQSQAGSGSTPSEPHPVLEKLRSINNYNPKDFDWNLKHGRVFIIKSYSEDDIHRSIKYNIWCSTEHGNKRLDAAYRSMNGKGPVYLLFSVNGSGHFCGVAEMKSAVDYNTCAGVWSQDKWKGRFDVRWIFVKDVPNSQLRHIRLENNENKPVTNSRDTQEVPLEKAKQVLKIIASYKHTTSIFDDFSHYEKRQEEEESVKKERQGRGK

[5] = molecular target: T8, Halo-V5-YTHDF2 (aa 368-579) (human) (UniProt Q9Y5A9); test: as above
T8 sequence: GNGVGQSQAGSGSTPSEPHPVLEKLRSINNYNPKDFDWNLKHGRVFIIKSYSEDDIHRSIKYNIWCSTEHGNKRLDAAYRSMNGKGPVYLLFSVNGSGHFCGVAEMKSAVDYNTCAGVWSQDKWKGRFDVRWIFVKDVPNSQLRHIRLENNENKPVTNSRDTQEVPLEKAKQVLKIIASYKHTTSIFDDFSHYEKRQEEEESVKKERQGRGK

[6] = molecular target: T9, Halo-V5-YTHDF2 (aa 1-367) (human) (UniProt Q9Y5A9); test: as above
T9 sequence: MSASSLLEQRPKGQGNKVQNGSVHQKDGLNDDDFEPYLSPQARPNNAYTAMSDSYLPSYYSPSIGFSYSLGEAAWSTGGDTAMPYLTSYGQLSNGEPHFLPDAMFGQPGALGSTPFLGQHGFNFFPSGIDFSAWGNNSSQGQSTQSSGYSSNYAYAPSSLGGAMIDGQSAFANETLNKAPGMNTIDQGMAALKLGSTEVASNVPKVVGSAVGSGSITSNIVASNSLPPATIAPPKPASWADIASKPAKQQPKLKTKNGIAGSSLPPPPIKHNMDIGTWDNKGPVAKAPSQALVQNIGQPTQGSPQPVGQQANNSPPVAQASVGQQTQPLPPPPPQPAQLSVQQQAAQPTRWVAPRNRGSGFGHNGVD

[7] = molecular target: T10, YTHDF2 (endogenous, Akata (EBV+) cells) (human (endogenous in Akata)) (UniProt Q9Y5A9); test: proximity ligation; Akata (EBV+) cells fixed with cold methanol, permeabilised with 0.5% Triton X-100; Duolink in situ PLA with mouse anti-YTHDF2 and rabbit anti-PIAS1 antibodies; PBS instead of antibodies as control
T10 sequence: T1 sequence

Molecule: V5-PIAS1 (aa 1-433) (from UniProt O75925 1-433) (domain or fragment)
- binding (HA-YTHDF2 (human)): binds

Molecule: HA-PIAS1 (from UniProt O75925 1-651)
- binding (Halo-V5-YTHDF3 (human)): binds
- binding (Halo-V5-YTHDF1 (human)): binds
- binding [1]: binds

Molecule: Halo-PIAS1 (from UniProt O75925 1-651)
- binding [1]: binds

Molecule: V5-PIAS1 (aa 101-433) (from UniProt O75925 101-433) (domain or fragment)
- binding (HA-YTHDF2 (human)): binds

Molecule: V5-PIAS1 (aa 1-415) (from UniProt O75925 1-415) (domain or fragment)
- binding (HA-YTHDF2 (human)): binds

Molecule: full-length PIAS1 (construct of Fig. 2B, tag not stated) (from UniProt O75925 1-651)
- binding [2]: binds
- binding [3]: no binding
- binding [4]: binds
- binding [5]: binds
- binding [6]: binds
- binding [1]: binds

Molecule: PIAS1 (endogenous, Akata (EBV+) cells) (from UniProt O75925 1-651)
- binding [7]: binds

B1: V5-PIAS1 (aa 1-205) (domain or fragment, UniProt O75925 1-205)
chain: MADSAELKQMVMSLRVSELQVLLGYAGRNKHGRKHELLTKALHLLKAGCSPAVQMKIKELYRRRFPQKIMTPADLSIPNVHSSPMPATLSPSTIPQLTYDGHPASSPLLPVSLLGPKHELELPHLTSALHPVHPDIKLQKLPFYDLLDELIKPTSLASDNSQRFRETCFAFALTPQQVQQISSSMDISGTKCDFTVQVQLRFCLS
- binding (HA-YTHDF2 (human)): binds

B2: V5-PIAS1 (aa 409-651) (domain or fragment, UniProt O75925 409-651)
chain: EDGTWAPMRSKKEVQEVSASYNGVDGCLSSTLEHQVASHHQSSNKNKKVEVIDLTIDSSSDEEEEEPSAKRTCPSLSPTSPLNNKGILSLPHQASPVSRTPSLPAVDTSYINTSLIQDYRHPFHMTPMPYDLQGLDFFPFLSGDNQHYNTSLLAAAAAAVSDDQDLLHSSRFFPYTSSQMFLDQLSAGGSTSLPTTNGSSSGSNSSLVSSNSLRESHSHTVTNRSSTDTASIFGIIPDIISLD
- binding (HA-YTHDF2 (human)): no binding

B3: Halo-V5-PIAS1 (aa 1-100) (domain or fragment, UniProt O75925 1-100)
chain: MADSAELKQMVMSLRVSELQVLLGYAGRNKHGRKHELLTKALHLLKAGCSPAVQMKIKELYRRRFPQKIMTPADLSIPNVHSSPMPATLSPSTIPQLTYD
- binding (HA-YTHDF2 (human)): no binding
